# Data as given in PubChem BioAssay AID504332 (National Center for Advancing Translational Sciences (NCATS), 2011).
# Out of some 350,000 compounds screened, about 31,000 (8.9%) were called active. The shares of active, inactive and inconclusive entries below differ from those in the screen. Calls follow the shape of the dose curve; as a rule, active = well fitted inhibition curve with a large enough effect; inconclusive = small, poorly fitted or top-dose-only effect; inactive = no such curve, though single readings can be large or run the other way. Potencies beside an inconclusive call are fits to weak or partial responses and may not hold up.
# Molecular target: Histone-lysine N-methyltransferase EHMT2 (Homo sapiens) (UniProt Q96KQ7)
# Chain of UniProt Q96KQ7 (Q96KQ7 whole entry, looked up): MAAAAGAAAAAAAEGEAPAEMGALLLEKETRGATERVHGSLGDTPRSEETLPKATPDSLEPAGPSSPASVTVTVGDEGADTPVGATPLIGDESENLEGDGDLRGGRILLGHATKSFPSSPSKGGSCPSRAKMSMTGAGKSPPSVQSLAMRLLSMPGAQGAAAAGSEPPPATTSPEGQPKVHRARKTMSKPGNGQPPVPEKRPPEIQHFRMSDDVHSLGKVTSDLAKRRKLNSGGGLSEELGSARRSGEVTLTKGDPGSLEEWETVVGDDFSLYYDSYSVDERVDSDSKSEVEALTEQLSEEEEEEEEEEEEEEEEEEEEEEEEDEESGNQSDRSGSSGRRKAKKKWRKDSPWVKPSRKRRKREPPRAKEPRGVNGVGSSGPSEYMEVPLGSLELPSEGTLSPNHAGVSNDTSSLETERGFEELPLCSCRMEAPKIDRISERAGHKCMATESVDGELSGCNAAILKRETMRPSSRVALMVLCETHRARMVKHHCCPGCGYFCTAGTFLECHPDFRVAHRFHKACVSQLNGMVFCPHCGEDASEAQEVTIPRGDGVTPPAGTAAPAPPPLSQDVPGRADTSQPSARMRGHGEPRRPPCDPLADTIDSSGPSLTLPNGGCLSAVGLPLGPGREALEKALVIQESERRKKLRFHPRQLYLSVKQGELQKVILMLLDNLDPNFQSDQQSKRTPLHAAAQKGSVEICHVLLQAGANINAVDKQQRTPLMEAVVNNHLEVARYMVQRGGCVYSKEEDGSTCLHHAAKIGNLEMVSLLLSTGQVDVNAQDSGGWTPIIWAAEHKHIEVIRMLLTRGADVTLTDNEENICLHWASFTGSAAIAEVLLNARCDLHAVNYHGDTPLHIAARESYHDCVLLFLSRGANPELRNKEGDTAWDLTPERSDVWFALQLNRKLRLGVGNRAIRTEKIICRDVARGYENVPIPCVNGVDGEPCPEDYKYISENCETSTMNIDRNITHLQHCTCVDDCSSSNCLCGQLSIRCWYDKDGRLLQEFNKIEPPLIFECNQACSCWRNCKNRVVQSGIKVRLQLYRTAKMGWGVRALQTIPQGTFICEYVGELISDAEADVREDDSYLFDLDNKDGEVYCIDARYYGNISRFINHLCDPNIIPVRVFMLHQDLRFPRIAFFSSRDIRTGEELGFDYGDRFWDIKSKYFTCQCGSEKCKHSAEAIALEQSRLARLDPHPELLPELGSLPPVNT
# Test: qHTS Assay for Inhibitors of Histone Lysine Methyltransferase G9a; also: nearly all actives have a fitted effect of over 75% in size
# Conditions: G9a H3K9 monomethylation, AlphaScreen, 2 h; activity, negative = inhibition: at 59 µM (top of the series) unless noted
# How it was run: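 G9a (20 nM) preincubated 15 min RT with compounds, then 500 nM biotinylated H3K9 peptide and 20 uM SAM added; 2 h RT reaction. Monomethyl-H3K9 product detected by AlphaScreen with anti-H3K9me1 antibody, streptavidin donor and anti-rabbit IgG acceptor beads.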
# % is scaled to controls: 0 for no effect and ±100 for the full control effect; potency is read from the fitted curve at half-maximal effect; tags tell the direction and shape of the fitted curve.
SMILES,Potency,"activity, negative = inhibition"
COc1ccccc1-c1cc(C(=O)Nc2sc3c(c2C#N)CCCC3)no1,active: 3.16 µM,–
CCOc1cc(N2CCOCC2)c(OCC)cc1NC(=O)c1ccc(C)cc1,"inconclusive: 89.1 µM [inhibitor, single point]",–
Brc1ccc(Nc2ncnc3[nH]ncc23)cc1,"inconclusive: 50.1 µM [inhibitor, partial curve]",–
COC(=O)N/N=C\c1cccc(OC(=O)c2cccs2)c1,inactive,–
CCCN(CCC)C(=O)Cn1c(=O)c2sccc2n2c(=S)sc(-c3ccccc3)c12,"inconclusive: 39.8 µM [inhibitor, partial curve]",–
Cc1nc2c(C(=O)NCc3ccccc3)c[nH]n2c(=O)c1Cl,active: 79.4 µM,–
CCN(CC)c1ccc([N+](=O)[O-])cc1C(=O)O,active: 50.1 µM,–
O=C(CNC(=O)c1ccc2c(c1)OCO2)Nc1ncccc1O,"inconclusive: 89.1 µM [inhibitor, single point]",–
CCOC(=O)Cn1c2ccc(C)cc2c2nc(C)sc21,"inconclusive: 79.4 µM [inhibitor, single point]",–
COC(=O)c1c(-c2ccc(Cl)cc2)noc1N1CCN(c2ccc(OC)cc2)CC1,inactive,–
O=C1CC(SCCc2nc3ccccc3[nH]2)C(=O)N1c1ccc(Cl)cc1 (centres undefined),inactive,–
COc1ccc(CCNC(=O)c2ccc3ccccc3n2)cc1,"inconclusive: 89.1 µM [inhibitor, single point]",–
COc1ccc(F)cc1S(=O)(=O)Nc1cc2c3c(c1)CCN3C(=O)CC2,active: 44.7 µM,–
CC(C)CCOc1ncnc2c1sc1nc3c(cc12)CSC(C)(C)C3,"inconclusive: 31.6 µM [inhibitor, single point]",–
Cc1ccc(Nc2nc(-c3c(C)nc4ncccn34)cs2)cc1,active: 39.8 µM,–
Cc1[nH]n(-c2nc(-c3ccccc3F)cc(=O)[nH]2)c(=O)c1CCO,"inconclusive: 1.12 µM [inhibitor, single point]",–
CCN(c1ccccc1)S(=O)(=O)c1ccc(OC)c(NC(=O)CN(C)C)c1,active: 12.6 µM,–
Cn1c(SCC(=O)N2c3ccccc3Sc3ccccc32)nnc1-c1ccco1,"inconclusive: 25.1 µM [inhibitor, single point]",–
COc1ccc(N2CCN(C(=O)c3ccc(OCC4CCCO4)cc3)CC2)cc1 (centres undefined),"inconclusive: 14.1 µM [inhibitor, partial curve, poor fit]",–
CC1(C)NC(=O)N(CC(O)Cn2nnc3ccccc32)C1=O (centres undefined),"inconclusive: 39.8 µM [inhibitor, partial curve, poor fit]",–
COCCNC(=O)c1c[nH]c2ccc(S(=O)(=O)N3CCc4ccccc43)cc2c1=O,"inconclusive: 35.5 µM [inhibitor, partial curve, poor fit]",–
COC(=O)C1=CC(C(=O)c2cccs2)=NN(c2ccc(OC)cc2)C1C(=O)OC (centres undefined),active: 12.6 µM,–
CCc1nn2c(=O)cc(COC(=O)CNC(=O)c3ccccc3)nc2s1,inactive,–
N#Cc1cccc(NC(=O)COC(=O)c2ccccc2C(=O)c2ccc(Cl)c([N+](=O)[O-])c2)c1,"inconclusive: 22.4 µM [inhibitor, partial curve, poor fit]",–
CN1CCN(C(=O)c2cc(Cl)cc(Cl)c2NC(=O)c2ccco2)CC1,inactive,–

SMILES,Potency,"activity, negative = inhibition"
Cc1ccccc1OCCOC(=O)c1nc2nccc(C)n2n1,inactive,–
COc1ccc(C(=O)N2CCNC(=O)C2)cc1S(=O)(=O)Nc1ccc(Br)cc1,inactive,–
CCCC1=C(C(=O)OCC)C(c2ccco2)C(C#N)=C(N)O1 (centres undefined),"inconclusive: 39.8 µM [inhibitor, partial curve, poor fit]",–
COc1ccccc1/C=C1\SC(N2CCC(C)CC2)=NC1=O,inactive,–
COC(CN1C(=O)C(=O)/C(=C(/O)c2ccccc2)C1c1ccccn1)OC (centres undefined),active: 50.1 µM,–
CCCCCOc1ccc(CSC2=NCCN2)cc1[N+](=O)[O-],"inconclusive: 35.5 µM [inhibitor, single point]",–
N#Cc1c(-c2cccs2)nc(SCC(=O)c2ccc(Br)cc2)[nH]c1=O,active: 39.8 µM,–
CCC(C(=O)n1cccc1C#N)c1ccccc1C (centres undefined),–,inconclusive: -83.5% [inhibitor] [at 2.33 µM]
O=C(CCC1CCCCC1)Nc1c2c(nn1-c1ccc(F)cc1)CS(=O)C2 (centres undefined),"inconclusive: 89.1 µM [inhibitor, single point]",–
COC(=O)c1c(-c2cccc(C)c2)csc1NC(=O)C1CCCO1 (centres undefined),"inconclusive: 28.2 µM [inhibitor, single point]",–
O=C(O)c1ccc(CSc2n[nH]c(-c3ccco3)n2)cc1,–,inconclusive: -53.4% [inhibitor]
COCCNC(=O)CSc1ccc(Cl)cc1,inactive,–
COc1ccc(OCC(=O)Nc2c(Cl)ccc3nsnc23)cc1,"inconclusive: 3.98 µM [inhibitor, partial curve, poor fit]",–
Cc1cccc(-n2c(SCC(=O)N3CC(=O)Nc4ccccc43)nc3ccccc3c2=O)c1C,active: 44.7 µM,–
COc1ccc(NC(=S)c2ccc(N(C)C)cc2)cc1,active: 25.1 µM,–
CCc1nn(CC(=O)NCCCN2CCc3ccccc3C2)c(=O)c2cc3sccc3n12,active: 44.7 µM,–
CC(=O)N1CCn2c3c(c(=O)c4cc(C)ccc42)CCC31 (centres undefined),"inconclusive: 7.08 µM [inhibitor, single point]",–
COc1ccccc1CNC(=O)c1ccc(N2CCCC2)c(NC(=O)NCc2ccccc2)c1,–,inactive: 6.94% [at 12.7 µM]
CCN(CC)S(=O)(=O)c1nnc(NC(=O)COc2ccccc2Cl)s1,active: 2.82 µM,–
O=C1OC(c2ccccc2)c2ccccc21 (centres undefined),inactive,–
COc1cccc2[nH]c3ccccc3c(=O)c12,inactive,–
CC(=O)N1CCC[C@@]2(CCN(Cc3cc(C(F)(F)F)cc(C(F)(F)F)c3)C2)C1,–,inactive: 38.1% [at 12.7 µM]
COc1ccc(C(=O)NC(=S)N2CCCc3ccccc32)cc1OC,"inconclusive: 50.1 µM [inhibitor, partial curve, poor fit]",–
Cc1cc(=O)[nH]c(N/N=C/c2sccc2C)n1,"inconclusive: 6.31 µM [inhibitor, partial curve, poor fit]",–
